± gives the standard deviation. The list shows a part of the results, in another mix than the full data.
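Further: 1 nM active piRISC with 0.1 nM target library at 33 °C single turnover.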

The subject of the first assay is MIWI (PIWIL1) piRISC loaded with L1MC piRNA (30 nt). In words: pre-steady-state target cleavage rate (min^-1); MIWI and MILI are mouse PIWI proteins and EfPiwi is from a freshwater sponge; tags in brackets are library labels; higher = faster piRNA-guided slicing of the target. The conditions noted are these: guide: L1MC piRNA 5'p-UAACUAAAUACUAUGCAAGCUGUAGGUCCU; auxiliary factor: 500 nM mouse GTSF1. Put shortly:
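At 33 °C in HEPES–potassium acetate buffer, a transcribed, DNA-blocked target RNA library […] was exposed for 0–8 or 0–960 min to 1 nM active affinity-purified piRISC carrying a single synthetic guide, with or without 500 nM GTSF1 partner protein. Uncleaved targets were sequenced and normalised to depth and to weakly complementary targets. With three trials pooled and k3 capped at 0.0001 min^-1, a burst-and-steady-state fit produced the pre-steady-state cleavage rate.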
Regarding UGGACCUUCAGCUUGCAUAGAAUUUAGUUA, the “pre-steady-state target cleavage rate” value worked out at 0.367 ± 0.023.
For UCGACCUACAGCAUGCAUAGUAUUUAGAUA, the “pre-steady-state target cleavage rate” value worked out at 0.538 ± 0.041.
For UCCUGGAACAGCUUGCAUAGUAUUCUAGUUA, the “pre-steady-state target cleavage rate” value is 0.285 ± 0.041.
Still for that read-out and setting: the same measure for AGGACCUACAGCUAUGCAUAGUAUUUAGUUA: 0.962 ± 0.052; for UCCUGGUAUAGCUUGCAUAGUAUUUAGUUA: 1.02 ± 0.043.
Turning to UCCUGCUACAGGUUGCAUAGUAUUUUGUUA, the “pre-steady-state target cleavage rate” value stood at 0.774 ± 0.078.
Consider UCCUCGAACAGCUUGCAUAGUAUUUAGUAA, for which the “pre-steady-state target cleavage rate” value amounted to 0.982 ± 0.042.
Turning to UCCUGGUUCAGGUUGCAUAGUAUUUAGUUA, the “pre-steady-state target cleavage rate” value turned out to be 0.711 ± 0.051.
Still for that read-out and setting: the result for UCCUGCUACACUUGCAUAGUAUUUAGUUA reads 0.81 ± 0.034; that for AGGACCUACAGCUUGCAUAGUUUUUACUUA, 0.148 ± 0.023.
For UCGACGUACAGCUUGCAUAGUAAUUAGUUA, the “pre-steady-state target cleavage rate” value was 0.848 ± 0.033.
AGGACCAACAGCUUGCAUAGUUUUUAGUUA: the “pre-steady-state target cleavage rate” value amounted to 0.46 ± 0.023.
With UCCUGGAACAGGAUGCAUAGUAUUUAGUUA, the “pre-steady-state target cleavage rate” value was determined as 0.568 ± 0.036.
As to UCCUGGAUCUGCUUGCAUAGUAUUUAGAAA, the “pre-steady-state target cleavage rate” value came to 0.117 ± 0.024.
UCCUGGAUGAGCUUGCAUUGUAUUUAGUUA: the “pre-steady-state target cleavage rate” value worked out at 0.491 ± 0.033.
For the sequence UCCUGGUACAGCUAGCAUAGUAUUUAGUAA, the “pre-steady-state target cleavage rate” value was determined as 0.422 ± 0.05.
Turning to UCCACCUACAGCUUGCAUAGUAUUUAGUGUA, the “pre-steady-state target cleavage rate” value came to 0.305 ± 0.04.
For the sequence UCCUCCUACACGUUGCAUAGUAUUUAGUUA, the “pre-steady-state target cleavage rate” value turned out to be 1.23 ± 0.042.
Regarding UCGACCUACAGGAUGCAUAGUAUUUAGUUA, the “pre-steady-state target cleavage rate” value was found to be 0.908 ± 0.065.
On the same count and under the same terms, the same measure for UCCACCUACAGCUUGCCUAGUAUUUAGUUA: 0.899 ± 0.052; for UCCUGGUACACCUUGCAUAGUAUUUACUUA: 0.195 ± 0.063.
As to AGGACCUACAGCUUGCAUAGUAUUUACGUUA, the “pre-steady-state target cleavage rate” value was found to be 0.844 ± 0.063.
On the same count and under the same terms, the result for ACCACCUACAGCUUGCAUAGUAUUUACAAA reads 0.597 ± 0.077; that for UCCUGGAACAGCUUGCAUAGAUUUUAGUUA, 0.0639 ± 0.0078; that for UCGACCUACAGCUUAGCAUAGUAUUUAGUUA, 1.59 ± 0.058.
As to UCGACCUACAGCUUGGAUAGUAUAUAGUUA, the “pre-steady-state target cleavage rate” value worked out at 0.853 ± 0.057.
As for UCCUGGAUGUGCUUGCAUAGUUUUUAGAUA, the “pre-steady-state target cleavage rate” value is 0.00724 ± 0.0061.
As to UCGACCUACACCUUGCAUAGUAUUUAGAUA, the “pre-steady-state target cleavage rate” value was found to be 0.428 ± 0.056.
The same measure, in the same setting: the same measure for UCCUGGAUGUCCUUGUAUAGUAUUUAGUUA: 0.0898 ± 0.016.
Regarding UCCUGGAUGAGCUUCAUAGUAUUUAGUUA, the “pre-steady-state target cleavage rate” value was determined as 0.443 ± 0.05.
Take UGGACCUUCAGCUUGCAUAGUAUUUACUUA: the “pre-steady-state target cleavage rate” value amounted to 0.276 ± 0.024.
On the same count and under the same terms, the same measure for AGGACCUACACGUUGCAUAGUAUUUAGUUA: 1.11 ± 0.043; for UCCUGGAUCAGCUUGCAUAGUAUUUUGUUA: 0.75 ± 0.036.
Turning to UCCUGGAACAGCUUGCAUAGUAUUUAAUUA, the “pre-steady-state target cleavage rate” value stood at 0.215 ± 0.026.
As to UCCUGCUACAGCUAGCAUAGAAUUUAGUUA, the “pre-steady-state target cleavage rate” value stood at 0.528 ± 0.048.
Same read-out and setting: the result for UCCUGGUAUCAGCUUGCAUAGUAUUUAGUUA reads 0.546 ± 0.06; that for UCCUGGAUGACCUUGGAUAGUAUUUAGUUA, 0.232 ± 0.023; that for UCCUGGUACAUCUUGCAUAGUAUUUAGUUA, 0.672 ± 0.045.
For UCCUGCUCAGCUUGCAUAGUAUUUAGUUA, the “pre-steady-state target cleavage rate” value turned out to be 1.09 ± 0.043.
For UCCUGGAAGAGCUUGGAUAGUAUUUAGUUA, the “pre-steady-state target cleavage rate” value turned out to be 0.672 ± 0.053.

The assay is the same for the next values; noted with them: guide: L1MC piRNA 5'p-UAACUAAAUACUAUGCAAGCUGUAGGUCCU; auxiliary factor: none (no GTSF1).
UGGACCUUCAGCUUGCAUAGAAUUUAGUUA: the “pre-steady-state target cleavage rate” value came to 0.0249 ± 0.0085.
As to UCGACCUACAGCAUGCAUAGUAUUUAGAUA, the “pre-steady-state target cleavage rate” value stood at 0.0119 ± 0.004.
Turning to UCCUGGAACAGCUUGCAUAGUAUUCUAGUUA, the “pre-steady-state target cleavage rate” value came to 0.0119 ± 0.0031.
On the same count and under the same terms, the result for AGGACCUACAGCUAUGCAUAGUAUUUAGUUA reads 0.0545 ± 0.011.
Same read-out and setting: the result for UCCUGGUAUAGCUUGCAUAGUAUUUAGUUA reads 0.0597 ± 0.012; that for UCCUGCUACAGGUUGCAUAGUAUUUUGUUA, 0.0176 ± 0.0036; that for UCCUCGAACAGCUUGCAUAGUAUUUAGUAA, 0.0424 ± 0.008.
For the sequence UCCUGGUUCAGGUUGCAUAGUAUUUAGUUA, the “pre-steady-state target cleavage rate” value is 0.0138 ± 0.0041.
Still for that read-out and setting: the result for UCCUGCUACACUUGCAUAGUAUUUAGUUA reads 0.0281 ± 0.0054.
As for AGGACCUACAGCUUGCAUAGUUUUUACUUA, the “pre-steady-state target cleavage rate” value is 0.0132 ± 0.0039.
For the sequence UCGACGUACAGCUUGCAUAGUAAUUAGUUA, the “pre-steady-state target cleavage rate” value was 0.0278 ± 0.0067.
Consider AGGACCAACAGCUUGCAUAGUUUUUAGUUA, for which the “pre-steady-state target cleavage rate” value was determined as 0.0565 ± 0.011.
Regarding UCCUGGAACAGGAUGCAUAGUAUUUAGUUA, the “pre-steady-state target cleavage rate” value came to 0.00379 ± 0.0025.
Regarding UCCUGGAUCUGCUUGCAUAGUAUUUAGAAA, the “pre-steady-state target cleavage rate” value was 0.00445 ± 0.0025.
Turning to UCCUGGAUGAGCUUGCAUUGUAUUUAGUUA, the “pre-steady-state target cleavage rate” value worked out at 0.0297 ± 0.009.
Regarding UCCUGGUACAGCUAGCAUAGUAUUUAGUAA, the “pre-steady-state target cleavage rate” value is 0.00728 ± 0.0033.
As to UCCACCUACAGCUUGCAUAGUAUUUAGUGUA, the “pre-steady-state target cleavage rate” value was found to be 0.0284 ± 0.0077.
Consider UCCUCCUACACGUUGCAUAGUAUUUAGUUA, for which the “pre-steady-state target cleavage rate” value was found to be 0.0129 ± 0.0021.
For UCGACCUACAGGAUGCAUAGUAUUUAGUUA, the “pre-steady-state target cleavage rate” value came to 0.0193 ± 0.004.
The same measure, in the same setting: the same measure for UCCACCUACAGCUUGCCUAGUAUUUAGUUA: 0.0293 ± 0.0058; for UCCUGGUACACCUUGCAUAGUAUUUACUUA: 0.00921 ± 0.0038.
The same measure, in the same setting: the same measure for AGGACCUACAGCUUGCAUAGUAUUUACGUUA: 0.083 ± 0.015; for ACCACCUACAGCUUGCAUAGUAUUUACAAA: 0.00495 ± 0.0036.
Consider UCCUGGAACAGCUUGCAUAGAUUUUAGUUA, for which the “pre-steady-state target cleavage rate” value is 0.00602 ± 0.0031.
In the case of UCGACCUACAGCUUAGCAUAGUAUUUAGUUA, the “pre-steady-state target cleavage rate” value is 0.0251 ± 0.0054.
Turning to UCGACCUACAGCUUGGAUAGUAUAUAGUUA, the “pre-steady-state target cleavage rate” value was found to be 0.0278 ± 0.0066.
Turning to UCCUGGAUGUGCUUGCAUAGUUUUUAGAUA, the “pre-steady-state target cleavage rate” value was 0.00466 ± 0.0025.
As for UCGACCUACACCUUGCAUAGUAUUUAGAUA, the “pre-steady-state target cleavage rate” value was found to be 0.0194 ± 0.0038.
With UCCUGGAUGUCCUUGUAUAGUAUUUAGUUA, the “pre-steady-state target cleavage rate” value amounted to 0.00816 ± 0.0023.
Same read-out and setting: the same measure for UCCUGGAUGAGCUUCAUAGUAUUUAGUUA: 0.00285 ± 0.0024.
For the sequence UGGACCUUCAGCUUGCAUAGUAUUUACUUA, the “pre-steady-state target cleavage rate” value is 0.0456 ± 0.01.
Still for that read-out and setting: the same measure for AGGACCUACACGUUGCAUAGUAUUUAGUUA: 0.0422 ± 0.0075.
As for UCCUGGAUCAGCUUGCAUAGUAUUUUGUUA, the “pre-steady-state target cleavage rate” value was 0.0311 ± 0.0076.
As for UCCUGGAACAGCUUGCAUAGUAUUUAAUUA, the “pre-steady-state target cleavage rate” value amounted to 0.0325 ± 0.0075.
On the same count and under the same terms, the same measure for UCCUGCUACAGCUAGCAUAGAAUUUAGUUA: 0.0108 ± 0.0032.
UCCUGGUAUCAGCUUGCAUAGUAUUUAGUUA: the “pre-steady-state target cleavage rate” value was determined as 0.062 ± 0.014.
UCCUGGAUGACCUUGGAUAGUAUUUAGUUA: the “pre-steady-state target cleavage rate” value was found to be 0.00751 ± 0.0028.
Take UCCUGGUACAUCUUGCAUAGUAUUUAGUUA: the “pre-steady-state target cleavage rate” value is 0.0421 ± 0.008.
Turning to UCCUGCUCAGCUUGCAUAGUAUUUAGUUA, the “pre-steady-state target cleavage rate” value was found to be 0.0636 ± 0.013.
As for UCCUGGAAGAGCUUGGAUAGUAUUUAGUUA, the “pre-steady-state target cleavage rate” value was determined as 0.0302 ± 0.0065.

The values above are taken from the supplement of paper PMC10338343.
